Test results from paper PMC4336329 (PLoS ONE, 2015).
In all, about 310,000 compounds went through this assay and about 2,200 (0.71%) showed an effect of 50% or more. The effect is printed as a negative number. This is one part of the list.

biological target: human ether-à-go-go-related gene (hERG) potassium channel (human, UniProt Q12809); assay: primary screen, population patch clamp on CHO cells stably expressing hERG
Sequence (Q12809 whole entry, looked up): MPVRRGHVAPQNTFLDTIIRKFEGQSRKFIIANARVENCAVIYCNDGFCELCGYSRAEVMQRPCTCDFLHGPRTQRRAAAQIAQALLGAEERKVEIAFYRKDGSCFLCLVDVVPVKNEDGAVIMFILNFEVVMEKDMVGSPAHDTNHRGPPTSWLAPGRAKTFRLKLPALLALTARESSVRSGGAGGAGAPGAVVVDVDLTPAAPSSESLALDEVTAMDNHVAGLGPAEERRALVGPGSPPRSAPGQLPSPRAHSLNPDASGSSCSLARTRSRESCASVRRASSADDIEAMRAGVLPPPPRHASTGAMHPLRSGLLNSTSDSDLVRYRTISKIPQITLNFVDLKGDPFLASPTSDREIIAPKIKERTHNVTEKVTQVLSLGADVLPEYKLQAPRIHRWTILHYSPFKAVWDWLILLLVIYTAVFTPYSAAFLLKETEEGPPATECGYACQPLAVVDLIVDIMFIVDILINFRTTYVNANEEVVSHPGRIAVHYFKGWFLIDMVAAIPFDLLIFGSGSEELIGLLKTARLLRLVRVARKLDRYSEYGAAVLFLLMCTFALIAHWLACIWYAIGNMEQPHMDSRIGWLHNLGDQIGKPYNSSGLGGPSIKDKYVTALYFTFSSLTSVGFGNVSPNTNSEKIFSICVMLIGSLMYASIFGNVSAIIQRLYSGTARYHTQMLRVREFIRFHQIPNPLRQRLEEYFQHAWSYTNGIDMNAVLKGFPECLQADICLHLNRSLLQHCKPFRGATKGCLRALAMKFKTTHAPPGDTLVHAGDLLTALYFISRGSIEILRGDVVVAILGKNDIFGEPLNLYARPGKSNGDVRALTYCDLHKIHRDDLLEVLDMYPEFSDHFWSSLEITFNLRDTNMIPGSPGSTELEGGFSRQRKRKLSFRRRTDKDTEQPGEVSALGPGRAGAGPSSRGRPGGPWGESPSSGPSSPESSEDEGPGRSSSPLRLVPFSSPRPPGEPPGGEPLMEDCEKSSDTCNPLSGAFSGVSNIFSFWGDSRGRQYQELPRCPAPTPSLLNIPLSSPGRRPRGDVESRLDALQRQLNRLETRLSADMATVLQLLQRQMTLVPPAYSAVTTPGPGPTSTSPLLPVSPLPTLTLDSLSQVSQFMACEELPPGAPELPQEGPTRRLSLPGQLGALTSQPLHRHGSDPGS

Compound | hERG current change (%, negative = inhibition) at 1uM [%]
NC(=O)Cc1nc(-c2ccccc2)cs1 | 12
Cc1ccc(C)c(OCc2nnc(N)s2)c1 | 11.1
O=C1CCN(Cc2ccc([N+](=O)[O-])cc2)CCN1[C@H](CO)Cc1ccccc1 | -10.3
COc1ccc(NC(=O)CSc2nc(C3CC3)nc3ccccc23)cc1 | 9.34
CN(C)S(=O)(=O)n1cnc([C@H]2c3c(ncn3Cc3ccccc3)C[C@H]3COC(=O)[C@@H]32)c1 | 0.667
CCCc1cc(=O)oc2cc(C)cc(OC(C)C(=O)N[C@@H](Cc3c[nH]c4ccccc34)C(=O)O)c12 (stereo partly drawn) | 9.44
CC(Sc1nn(-c2ccc(Cl)cc2)c(=S)s1)C(=O)NCC1CCCO1 (stereo not drawn) | -1.11
CCOc1cc(C(=O)OCC(=O)Nc2cc(C)on2)ccc1OCC(C)C | 3.6
Nc1ccc(C(=O)OCC(=O)Nc2cc([N+](=O)[O-])ccc2F)cc1 | 0.969
O=C1CCCN1CC(O)CS(=O)(=O)Cc1ccccc1Cl (stereo not drawn) | 14.4
NC(=O)c1ccsc1NC(=O)CN1C(=O)C2CC=CCC2C1=O (stereo not drawn) | 10.3
CCCN(CCC)S(=O)(=O)c1ccc(C(=O)O)cc1 | -9.32
COc1cc(-c2nc3c4ccccc4nc(=S)n3[nH]2)cc(OC)c1OC | 24.5
COc1cc2oc3cc(C)oc(=O)c3c2cc1OC | 2.73
COc1ccc(OC)c(NC(=O)C2CCCN(S(=O)(=O)c3ccc(-n4cnnn4)cc3)C2)c1 (stereo not drawn) | 5.12
COc1ccc(CN(C)S(=O)(=O)c2nnc(NC(=O)c3cccc(C)c3)s2)cc1OC | 14.1
O=C(CNC(=O)c1ccccc1)OCC(=O)N1c2ccccc2Sc2ccccc21 | 10.3
O=C(CN1CCOCC1)Nc1ncccn1 | 12.3
COc1ccc(NC(=O)CN2CCC(Cc3ccccc3)CC2)cc1S(=O)(=O)N1CCOCC1 | 3.78
Cn1c(N)c(C(=O)Nc2ccc(-c3ccccc3)cc2)sc1=S | 12.2
CC(C)(C)c1ccc(C(=O)N2CCC(NC(=O)c3ccccc3)CC2)cc1 | 17
Cc1ccc(S(=O)(=O)NC(=O)NCC2CCN(S(=O)(=O)c3ccccc3)CC2)cc1 | 12.7
C=CCn1c(SCC#N)nc2ccccc2c1=O | 13.1

Compound | hERG current change (%, negative = inhibition) at 1uM [%]
CCOC(=O)c1cnn(CCOC(=O)C2CC2)c1NC(=O)C1CC1 | 4.67
COc1ccc2c(=O)c(-c3ccccc3)coc2c1 | 13.9
COc1cccc(C(=O)Nc2c(C)n[nH]c2C)c1 | 11.9
Cc1cccnc1NC(=O)COc1ccc2oc3c(c2c1)CCCC3 | 16.8
CSc1nc(C)c(Cc2ccccc2)c(=O)[nH]1 | 13.6
CCN(CC)C(=O)CC(c1ccc2c(c1)OCO2)c1c(O)cc(OC)cc1OC (stereo not drawn) | 5.47
Cc1cc(C)c2c(=O)n(CC(=O)NCCCN3CCN(c4ccccc4F)CC3)sc2n1 | -15.3
O=C(NCCCN1CCN(C2CCCCC2)CC1)Nc1ccccc1C(F)(F)F | -18.6
O=C(Nc1cccc(-n2cnnn2)c1)c1cccs1 | 18.5
COc1ccc(N2CCN(C(=O)c3sc4ncn(CC(=O)N5CCCCC5C)c(=O)c4c3C)CC2)cc1 (stereo not drawn) | 1.19
CCCNS(=O)(=O)c1ccc(Oc2ncc(C(F)(F)F)cc2Cl)cc1 | 10.6
C=CCn1c(COc2ccccc2OC)nc2ccccc21 | 4.94
O=C(NCc1cccs1)C1CCN(c2nc3ccccc3o2)CC1 | -7.43
COCCCNCCOCCOc1ccc(C)cc1Br | -3.87
Cc1ccc(C)c(C(C)NC(=O)c2ccccc2Br)c1 (stereo not drawn) | 6.64
Cc1ccc(NC(=O)CSc2ccc(-c3ccccn3)nn2)cc1F | 10.4
O=C(COC(=O)c1cc(-c2cccs2)nn1-c1ccccc1)Nc1cccc([N+](=O)[O-])c1 | -0.452
Cc1c(C(=O)NCc2ccc3c(c2)OCO3)oc2ccc(S(=O)(=O)N3CCCCCC3)cc12 | 9.62
CCOc1ccccc1/C=N/NC(=O)CNC(=O)c1ccc(S(=O)(=O)N2CCOCC2)cc1 | 9.95
O=C(NCc1ccc2c(c1)OCO2)c1cc2c(s1)CSC2 | 13.6
CCOC(=O)CNC(=O)C(CC(C)C)NC(=O)C1CCCCC1 (stereo not drawn) | 8.23
O=C(c1ccccc1)c1ccccc1C(=O)N1CCCC1 | -2.15
COc1ccc(N2CCN(c3nc4c(c(=O)n(C)c(=O)n4C)n3Cc3ccccc3)CC2)cc1 | 3.75

Compound | hERG current change (%, negative = inhibition) at 1uM [%]
COc1ccc(C)cc1N(C(=O)COc1cccc(F)c1)c1nc2ccccc2s1 | -13.3
O=C(c1ccco1)N1CCN(CC(O)Cn2c3ccccc3c3ccccc32)CC1 (stereo not drawn) | -4.83
Cc1c(C(=O)N2CCC2)oc2ccc(Br)cc12 | -2.36
CCCc1nnc(SCc2ccc(C(=O)OC)o2)n1N | 10.2
O=C(Cc1cccc(C(F)(F)F)c1)N1CCN(CC(=O)N2CCCC2)CC1 | 12
O=C(O)CCC1OC(=O)C(O)=C1c1ccccc1 (stereo not drawn) | 13.2
Cc1cccc(NC(=O)c2ccc(COc3ccccc3[N+](=O)[O-])o2)n1 | 3.01
Cc1cc(=O)nc2c3ccccc3n(CC(=O)NCCCN3CCCCC3C)n12 (stereo not drawn) | 9.8
CC(CCc1ccccc1)NC(=O)C1CCN(S(=O)(=O)N2CCCCC2)CC1 (stereo not drawn) | -3.31
COC(=O)c1[nH]c2ccc(C)cc2c1NC(=O)CN1CCN(c2ccccc2)CC1 | 8.44
O=C(Cc1nnc(NC(=O)c2cccc([N+](=O)[O-])c2)s1)NCc1ccccc1 | 15.6
COc1ccc(-n2cc(CNCC3CC(=O)N(C4CC4)C3)c(-c3ccccc3Cl)n2)cc1 (stereo not drawn) | 1.9
COc1ccccc1N1CCN(C(=O)c2ccc(N3CCCC3=O)cc2)CC1 | 6.64
COC(=O)c1ccc(-c2ccc(/C=N/NC(=O)CC3(C)OCCCO3)o2)cc1 | 11.3
COc1ccc(C(C)NC(=S)NCc2ccc(F)cc2)cc1OC (stereo not drawn) | 3.47
COc1ccc(N2C(=O)C3CCCN3C2c2ccccc2Cl)cc1 (stereo not drawn) | 8.68
CC(C)C(NS(=O)(=O)c1ccc2c(c1)C(C)(C)C(=O)N2C)C(=O)NCc1ccccc1Cl (stereo not drawn) | 3.16
O=C1CC(c2ccccc2)Sc2nc(-c3ccccc3)c(-c3ccccc3)n21 (stereo not drawn) | 7.14
COc1ccc(OC)c(C(=O)Cn2nnc(-c3ccc(N4CCOCC4)cc3)n2)c1 | 13.1
CC(C)CCn1c(CN(C)Cc2ccccc2)nc2c1c(=O)n(C)c(=O)n2C | -21.1
C[n+]1cc(-c2ccccc2)oc1-c1ccccc1 | 18.5
CCOC(=O)C1CCCN(C(=O)Cn2nc(CC)n3c(cc4sccc43)c2=O)C1 (stereo not drawn) | 2.36
CC(=O)/C=C/c1ccccc1Oc1c(F)c(F)nc(F)c1F | 9.93

Compound | hERG current change (%, negative = inhibition) at 1uM [%]
O=C(N/N=C/c1ccc2c(c1)OCO2)C(=O)N1CCCC1 | 9.83
CCn1c(SCC(=O)c2ccc3c(c2)OCCO3)nnc1-c1ccco1 | -3.18
COc1ccc(-n2c(C)nn(C)c2=O)c(OC)c1 | 3.28
O=C(CC12CC3CC(CC(Br)(C3)C1)C2)OCCN1CCCCC1 | 8.55
Clc1ccc(Nc2c3c(nc4ncnn24)CCC3)cc1 | 24.3
CCOc1ccc(-c2nc(C#N)c(N3CCCCCC3)o2)cc1 | 7.29
Cc1nc2cc(C(=O)O)ccc2n1C1CCCCC1 | 8.97
C=CCn1c(=O)c(C(=O)NCc2ccccc2Cl)c(O)c2ccccc21 | 12.6
C/C(CC(=O)NCc1ccccc1Cl)=N/NC(=O)c1ccccn1 | 11.4
COc1ccc(S(=O)(=O)N(CCC(=O)O)Cc2ccccc2)cc1 | 10.4
O=C(CSc1ncnc2ccccc12)NCc1ccco1 | 10.9
COc1ccc(C(=O)NNC(=S)NC(=O)c2ccco2)cc1 | 9.54
CCOc1ccc(Cl)cc1S(=O)(=O)NC1CCCC1 | 17.2
COc1ccc(NC(=S)Nc2ccccc2SC)c(OC)c1 | 10.2
COc1cc(OC)c(C#N)c(S(=O)(=O)Cc2ccccc2)c1 | -9
Nc1cc(OCC(F)(F)F)cc([N+](=O)[O-])c1 | 10
CCS(=O)(=O)c1ccc(-c2cccc(NC(=O)COc3ccccc3)c2)nn1 | 9.2
Cn1c(C(=O)NCc2cccs2)cc2oc3ccccc3c21 | 5.03
CCc1noc(C)c1C(=O)N1CCN(S(=O)(=O)c2ccc(C(C)C)cc2)CC1 | -5.49
CCOc1cc(/C=N/NC(=O)c2cccnc2)ccc1OCC(=O)N(C)C | 15.3
Cc1ccc(NC(=O)Nc2cc(C(F)(F)F)c[nH]c2=O)cc1 | 15
